# Assay results published in the supplement of paper PMC3334620.
# Over roughly 33,000 sequences, “E-score (-0.5 to 0.5)” has its median near -0.011; the highest 2% begin near 0.28. The list shows a part of the results.
# Biological target: T1, Gcr1 (UniProt P07261)
# T1 sequence: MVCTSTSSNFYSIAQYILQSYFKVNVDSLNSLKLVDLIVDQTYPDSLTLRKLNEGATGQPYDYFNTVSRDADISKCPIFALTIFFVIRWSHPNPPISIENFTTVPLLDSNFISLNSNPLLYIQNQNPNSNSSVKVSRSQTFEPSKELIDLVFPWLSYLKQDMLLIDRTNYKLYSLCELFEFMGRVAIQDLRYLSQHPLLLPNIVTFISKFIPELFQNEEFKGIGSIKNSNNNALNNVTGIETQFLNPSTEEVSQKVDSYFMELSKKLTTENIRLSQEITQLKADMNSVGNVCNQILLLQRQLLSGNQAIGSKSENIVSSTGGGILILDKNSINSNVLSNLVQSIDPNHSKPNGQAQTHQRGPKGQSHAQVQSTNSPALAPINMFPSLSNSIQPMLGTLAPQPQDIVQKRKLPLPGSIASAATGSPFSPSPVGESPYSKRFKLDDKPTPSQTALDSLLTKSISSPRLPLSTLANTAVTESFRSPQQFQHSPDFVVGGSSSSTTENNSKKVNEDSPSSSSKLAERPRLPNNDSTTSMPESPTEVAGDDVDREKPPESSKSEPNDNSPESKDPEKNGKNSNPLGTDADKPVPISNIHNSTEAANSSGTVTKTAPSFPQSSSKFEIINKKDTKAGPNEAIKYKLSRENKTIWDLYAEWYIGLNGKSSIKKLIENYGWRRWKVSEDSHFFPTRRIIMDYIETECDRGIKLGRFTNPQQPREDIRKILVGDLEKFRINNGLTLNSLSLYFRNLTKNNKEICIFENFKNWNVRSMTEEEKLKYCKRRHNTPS
# Assay: PBM E-score (8-mer binding enrichment) (E-score (-0.5 to 0.5)); higher = stronger / more preferred TF binding; most listed sequences are background and not binding sites
# Details: protein concentration: 100 nM; construct: GST-full length
# Protocol: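 Universal 'all 10-mer' protein binding microarrays (Agilent AMADID 015681) probed with GST-tagged S. cerevisiae TFs (full-length or DBD) made by in vitro transcription/translation (PURExpress), about 100-200 nM. Bound TF was detected with fluorescent anti-GST. Each ungapped 8-mer (which stands for itself and its reverse complement) is scored by the PBM enrichment score (E-score), a modified Wilcoxon-Mann-Whitney statistic from -0.5 to +0.5, computed with the Universal PBM Analysis Suite. Scale: above 0.35 generally sequence-specific binding.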
row,Sequence,PBM E-score
1,ACGAACCG,-0.107
2,AGTGCTGA,-0.0757
3,ACGGCGGC,-0.00051
4,ATTAAAGG,0.112
5,AGCTCTTG,-0.183
6,ATTTCCAC,0.177
7,CGGGTACC,0.137
8,ATCCGTCC,-0.0828
9,GAAACTTC,0.0757
10,CACCCTTA,-0.118
11,ACGTCAAA,-0.0464
12,GTATGATA,-0.119
13,GCCAGGCA,-0.0277
14,GACGTACC,-0.17
15,ACGCTAGG,-0.177
16,CTTTCGTA,0.00784
17,AACAACGC,0.0407
18,CGGTCCAG,-0.0408
19,ATATATGA,0.0263
20,AGCCTAAT,0.00711
21,AATATTAA,0.258
22,AACTAGTC,0.0429
23,ATACTGGG,0.173
24,AACGATCG,-0.227
25,ACCCAAGT,-0.0246

row,Sequence,PBM E-score
1,AGGAGGAA,0.181
2,AACCACCT,0.124
3,CGCTGGTA,0.0497
4,ACGCCATG,-0.0676
5,AAGCTTGG,-0.134
6,ATATCCAT,-0.00061
7,AATTGGTC,0.0638
8,AGATCTAT,-0.0414
9,CACGTCAA,-0.156
10,CAGGAACC,0.32
11,CTCTTCCC,-0.26
12,AGCGTGAC,-0.215
13,AGATCCAT,-0.23
14,CAGAGCGC,-0.0969
15,AAAATCGT,0.0793
16,GGAGAACC,0.00608
17,AGGCGCGG,-0.14
18,TAAACTTA,-0.00782
19,CTGTTTCA,0.0249
20,ATGGGAGA,-0.18
21,GTGCCAAC,-0.0662
22,GCGAAGCC,0.1
23,CCGAAAAG,0.162
24,AGGGTCCC,0.277
25,ATCCCTGA,0.0556

row,Sequence,PBM E-score
1,ACGTAATG,-0.0746
2,AGCTTTGG,0.0729
3,AAACAGAT,0.16
4,GTTCGACA,0.0702
5,CAATATCC,-0.0114
6,AGGGCCAC,-0.243
7,AGTGCGGA,0.115
8,CCGGCTCC,0.0887
9,CTGTCTCA,-0.0202
10,CACGATAC,0.0775
11,GCGTTTTA,0.00422
12,CAGCCGAG,0.0411
13,CCATTTCC,-0.0631
14,AATTAAAT,0.0347
15,TAGTTGAA,0.0225
16,TATAGGCA,0.167
17,AAGTACCA,0.131
18,AGACTCCA,0.15
19,AATAATAA,0.152
20,TCACGCCA,-0.00387
21,GTCCAAGA,0.149
22,AAAACAAT,-0.139
23,CGTCCACC,-0.0259
24,GGTAAGGA,-0.218
25,ATTGCTTG,-0.0427

row,Sequence,PBM E-score
1,TGAAGCCA,-0.0656
2,AAGCTGGT,0.183
3,CCACGTTC,-0.144
4,ATAACAGC,-0.0429
5,CTCTCAAA,-0.0198
6,GGCTTAAA,-0.0412
7,GCGAGCGC,-0.0888
8,GCACTCAC,-0.272
9,GACTTCAC,-0.131
10,ATCCTTCA,0.00843
11,CATTGGGC,-0.0484
12,ACCCGATG,-0.0442
13,GCACAGCC,-0.14
14,TAAAAACA,0.124
15,AAGCCCGT,-0.0227
16,GTCTTGAA,0.0745
17,AAGACTAG,-0.125
18,CTTCAGCA,-0.0569
19,ATCTTTGA,-0.0179
20,GCCGACAA,0.00717
21,GACTCCGA,0.0546
22,GAGAAATC,-0.0896
23,ACGTCTCC,0.101
24,ACGTTGTG,0.111
25,CGGCGACA,0.0198

row,Sequence,PBM E-score
1,AATGGGAG,0.0925
2,TGGGTAAA,0.0715
3,CCAAACGC,0.122
4,ACCGCTGA,-0.0837
5,GGCATATA,0.0123
6,AGGTGGGA,-0.203
7,AATAAACA,0.102
8,GATCATGC,-0.0461
9,AATAGCAG,0.0707
10,AATCGGTG,-0.1
11,ATTCTATC,0.00132
12,AGGACACC,-0.0484
13,GTTCCAAA,0.302
14,CTAGGGTA,-0.116
15,ACCTCGAC,-0.215
16,GCCCGACC,-0.225
17,AGTAATGA,-0.0951
18,CGCGCCTC,0.0569
19,AGTAGATA,0.0938
20,AAGTCAGT,-0.051
21,AGGAAGTC,0.337
22,AAGGCAAG,-0.303
23,ACAGCGCG,-0.101
24,ATCTGTGC,-0.15
25,CGAGGAGA,-0.0605

row,Sequence,PBM E-score
1,ACATTGAT,0.202
2,GGGAAAAA,0.119
3,AGCCCACC,0.114
4,AGTTGCCC,0.00277
5,CCCGATCC,-0.14
6,GCATTTAC,-0.133
7,AATAGTTG,0.199
8,AAAACAAA,0.133
9,CGTCACGC,0.0174
10,CACGCCAC,-0.0186
11,AAGCACGA,-0.158
12,GAGGGCGA,-0.169
13,CTGATTCC,-0.0213
14,CAGAGGTC,-0.141
15,AGGTAACC,0.0371
16,CGGATTCC,0.463
17,GCTGGAAC,-0.0311
18,GCACGTGC,-0.067
19,ACACCAAA,0.0653
20,GCGTCTGA,0.245
21,AAAATCGA,-0.0278
22,ATACTATA,-0.0912
23,AAAATCCG,0.111
24,AACGATAT,0.0585
25,CGATGCGC,0.0541

row,Sequence,PBM E-score
1,CGTAAAAG,0.277
2,CAACTCAA,0.0769
3,CTGAGGCA,-0.169
4,CCGCGTAA,-0.0308
5,ATGCGCTA,0.0378
6,CTTAAGAC,-0.104
7,ACGGTCCT,-0.316
8,CGAAGAGC,-0.081
9,CGATCTTA,-0.045
10,TTACGGAA,0.141
11,TAGTCAAA,-0.0803
12,CATTGAGC,-0.158
13,CGGGGACA,-0.162
14,CACGCAAG,-0.161
15,ACTGCACC,0.014
16,GTTAGTCA,-0.0875
17,GCGTCAAC,-0.044
18,AGCTTGAT,-0.0733
19,CACTAAGC,-0.0075
20,ATAGCAAG,0.069
21,AACCGTGT,0.0252
22,AGTGCCGG,-0.0544
23,GTTTGCCA,-0.12
24,AAACCCAT,-0.0008
25,ACGAGACG,-0.00848

row,Sequence,PBM E-score
1,ATGATGGG,-0.00476
2,CTGACTGA,0.00818
3,AATGGACT,-0.0935
4,AGTCCTGA,0.176
5,GCTCTATA,-0.0304
6,CGGTTTAC,-0.242
7,TTTAGAAA,0.145
8,CGATCTCC,-0.0795
9,CAGCTAGC,-0.147
10,AGAACAAA,0.0755
11,CGCGCGAG,-0.0112
12,AATTATAT,0.195
13,AAAGTGGG,0.0574
14,GATACATA,-0.0594
15,CGCATGTC,-0.166
16,CTAATCTC,-0.00798
17,TCAGCTAA,-0.225
18,GACCTGAA,-0.0733
19,CACGAGAG,-0.108
20,AATGGGAT,0.28
21,CCAAGGGC,-0.269
22,AAACGTTA,-0.157
23,ACACCAGA,0.0664
24,CGTAACCA,0.063
25,CCTTCCCC,-0.122

row,Sequence,PBM E-score
1,CGGAACCG,0.18
2,ACTCAAAG,0.141
3,CCACCCGG,-0.118
4,AACAAACT,0.0877
5,ATGAGGTC,-0.16
6,AGTGGTCA,-0.00597
7,CAAACGAA,0.0386
8,AGCAAGCC,-0.272
9,CCGGATGA,0.112
10,AAGCGTGA,-0.237
11,CTCAGCGA,0.0232
12,CCTCGACC,-0.184
13,CTTTAATA,0.0353
14,ACATGCAG,0.0565
15,CTACCGAG,0.111
16,AACAGGTA,0.269
17,AATAGGCC,-0.127
18,CTAGTGGC,0.106
19,CGTCGAAC,-0.147
